This note sets out measurements from PMC6919601, “Identification of Plasmodium dipeptidyl aminopeptidase allosteric inhibitors by high throughput screening” (PLoS ONE, 2019).

The structures appear in SMILES notation. Out of some 110,000 compounds screened, about 230 (0.21%) showed an effect of 50% or more. Some of the results follow.
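Note: 30 min substrate incubation versus DMSO and 10 µM JCP410 controls.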

Chain of DPAP1 (Q8IIJ9 whole entry, looked up): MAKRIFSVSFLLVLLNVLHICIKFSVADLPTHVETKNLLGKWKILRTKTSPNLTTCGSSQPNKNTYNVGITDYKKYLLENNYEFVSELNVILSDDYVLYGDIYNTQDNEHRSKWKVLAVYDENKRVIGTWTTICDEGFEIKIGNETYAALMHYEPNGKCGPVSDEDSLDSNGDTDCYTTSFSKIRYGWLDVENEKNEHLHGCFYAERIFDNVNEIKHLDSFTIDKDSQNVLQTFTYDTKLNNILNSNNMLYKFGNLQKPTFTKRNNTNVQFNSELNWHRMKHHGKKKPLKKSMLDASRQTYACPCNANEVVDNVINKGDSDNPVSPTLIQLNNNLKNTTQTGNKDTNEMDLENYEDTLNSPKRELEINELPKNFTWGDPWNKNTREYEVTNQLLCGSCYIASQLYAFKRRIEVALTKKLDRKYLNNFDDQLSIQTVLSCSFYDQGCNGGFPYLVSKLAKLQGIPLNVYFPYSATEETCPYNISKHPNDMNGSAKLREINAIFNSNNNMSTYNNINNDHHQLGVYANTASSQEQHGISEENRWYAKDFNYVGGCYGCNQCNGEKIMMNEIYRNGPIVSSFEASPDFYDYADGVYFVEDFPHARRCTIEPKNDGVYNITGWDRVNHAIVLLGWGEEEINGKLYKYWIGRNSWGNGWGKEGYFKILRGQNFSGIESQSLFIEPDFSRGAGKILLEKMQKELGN

This assay concerns the target DPAP1 (Plasmodium falciparum, UniProt Q8IIJ9). Description: primary screen, percent inhibition; read by cleavage of a fluorogenic dipeptide substrate; higher = more effect of the substance. Further details: species or system P. falciparum D10 trophozoite lysates; single well.
Consider `CCO/C(O)=C1/C(C)=NC2=C(C(=O)CCC2)C1c1ccc(Cl)cc1` (centres unmarked), for which the “% Inhibition @ 10 uM” value is given as -1.78%. As for `CC1=C(C(=O)Nc2ncccc2C)C(c2ccc(F)cc2)C2=C(O)CCCC2=N1` (centres unmarked), the figure is 1.43%; as for `O=C1C(/C=N/Cc2cccs2)=C(O)c2ccccc21`, -0.467%; as for `N#CCNC(=O)[C@H](C[C@H]1CC[C@H](O)CC1)NC(=O)c1ccccc1`, 1.35%. As for `Cc1ccc2c(c1)-c1c(cnn1CC(=O)NCc1ccc3c(c1)OCO3)CO2`, the figure is -2.67%; as for `Cc1ccc(C(=O)Nc2cccc(C#N)c2)cc1Br`, 0.727%.

For the molecule `CC(C)C[C@H](NC(=O)N1CCc2ccccc2C1)C(=O)NCC#N`, the “% Inhibition @ 10 uM” value was -6.98%. As for `Cc1ccc(C2CC(=O)N3CN(C(C)c4ccccc4)CSC3=C2C#N)cc1` (centres unmarked), the figure is 10.6%; as for `CCNc1nc(NCC)n2c(SCC(=O)c3ccc(OC)cc3F)nnc2n1`, -2.63%.

As to `COc1ccc(N2C(=O)C3CC=CCC3(C)C2=O)cc1` (centres unmarked), the “% Inhibition @ 10 uM” value is reported as -0.512%. As for `CC1CCCN(c2nc3c(S(=O)(=O)c4ccccc4)nnn3c3ccc(Cl)cc23)C1` (centres unmarked), the figure is -1.37%; as for `O=S(=O)(c1ccc(-c2csc(Nc3ccc(F)cc3)n2)cc1)N1CCCC1`, -2%; as for `COC(=O)c1cc(-c2ccc(C)cc2)[nH]n1`, -3.21%. As for `COc1ccccc1N(CC(=O)Nc1cccc(Br)c1)S(=O)(=O)c1ccc(C)cc1`, the figure is 2.95%; as for `O=C(ON1C(=O)CCC1=O)c1ccccc1`, 18%.

For the molecule `COC1=CC(=O)C=C(OC)C12CC(C)(C)N=C2SC`, the “% Inhibition @ 10 uM” value is reported as -5.3%. As for `O=C(c1ccco1)N1CCN(c2nc3ccc(Cl)cc3n3cnnc23)CC1`, the figure is -0.522%. In the case of `CC1=C(C(=O)NCCCN2CCOCC2)C2(CCN(Cc3ccccc3)CC2)OC1=O` it was 5.8%. As for `O=C(CSc1nc2ccccc2[nH]1)NCc1ccco1`, the figure is 1.42%; as for `CCn1ncc(CNC(=O)c2cnn3c(C(F)F)cc(-c4ccc(C)cc4)nc23)c1C`, 0.778%; as for `Cc1ccc(CNC(=O)C2CCCN(c3ncnc4c3nc3n4CCCCC3)C2)cc1` (centres unmarked), 6.14%. As for `CC(C)CCNC(=O)CN1Cc2ccccc2C1=O`, the “% Inhibition @ 10 uM” value came to 4.36%. As for `CC1(NC(=S)N2CCCCC2)CCS(=O)(=O)C1` (centres unmarked), the figure is -2.65%; as for `Cc1c(C(=O)N2CCCCC2c2cccnc2)sc2nc3n(c(=O)c12)CCCCC3` (centres unmarked), 2.07%.

Take `O=[N+]([O-])c1ccc(S(=O)(=O)Nc2ccc(Br)cc2)cc1`: the “% Inhibition @ 10 uM” value is on record as -4.61%.

Consider `O=C(c1ccco1)N1CCN(CCOc2ccc(F)cc2)CC1`, for which the “% Inhibition @ 10 uM” value amounted to 2.25%. In the case of `Nc1nc2nonc2nc1N` it was -4.27%; in that of `Cc1cc(Cl)ccc1OC(C)C(=O)N1CCN(c2ccccc2)CC1` (centres unmarked), -1.79%. As for `Cc1ccc(Cl)cc1-n1nnc(-c2nc(-c3cccnc3)no2)c1N`, the figure is 1.66%; as for `CC(C)n1c(-c2cccs2)nc2ccccc21`, -0.551%. Take `O=C(Nc1ccc2c(c1)OCO2)c1nn2c(C(F)(F)F)cc(-c3cccs3)nc2c1Cl`: the “% Inhibition @ 10 uM” value is given as -3.44%. In the case of `COc1cccc2c1cc1c(=O)n(CC(=O)NC3CCCc4ccccc43)nc(C)n12` (centres unmarked) it was 1.68%; in that of `COc1ccc(/C=C2\SC(=O)N(Cc3ccc(F)cc3)C2=O)cc1O`, 15.9%. As for `COc1ccc(NC(=O)CSc2nc3c(cc2C#N)CCCCC3)cc1`, the figure is 2.85%. As to `O=C(CN1C(=O)CSc2ncccc21)N1CCOCC1`, the “% Inhibition @ 10 uM” value is reported as -2.37%.

For the molecule `COc1ccc(C(=O)Nc2ccc(Cl)cc2C(=O)Nc2ccncc2)cc1`, the “% Inhibition @ 10 uM” value was -3.87%. On to `Cc1ccc(C(=O)Nc2sc3c(c2C(=O)N2CCN(C)CC2)CCC(C)C3)cc1` (centres unmarked), for which the “% Inhibition @ 10 uM” value is given as -0.171%.

In the case of `COc1ccc(C2=N/C(=C\c3ccccc3F)C(=O)O2)c(Cl)c1`, the “% Inhibition @ 10 uM” value is listed as 3.42%.

For the molecule `Cc1onc(-c2ccccc2Cl)c1C(=O)NCC(=O)O`, the “% Inhibition @ 10 uM” value was determined as 6.11%. In the case of `O=C(O)c1nccnc1C(=O)Nc1ccc(Cl)c(Cl)c1` it was -2.18%; in that of `COc1cccc(C2=NS(=O)(=O)N(C)C(C(=O)N3CC4(C)CC3CC(C)(C)C4)=C2)c1` (centres unmarked), -1.06%; in that of `CN1CCN(C(=O)CSc2nc3ccc(NC(=O)c4ccccc4Cl)cc3s2)CC1`, -3.16%. For `CC(C)CS(=O)(=O)C1=NSC2=NC(=O)/C(=C\c3ccc(Br)o3)C(=N)N21`, the “% Inhibition @ 10 uM” value was -1.58%.

Take `Cc1c(Br)c(-c2nnc(S)n2Cc2ccco2)nn1C`: the “% Inhibition @ 10 uM” value was -2.9%. In the case of `O=C(NCCN1CCOCC1)Nc1cnc2ccccn2c1=O` it was 3.66%; in that of `C=CCN1C(=O)/C(=C\c2c(C)[nH]c3ccccc23)C(=O)NC1=S`, -0.712%; in that of `Cc1cc(C)cc(Oc2coc3cc(O)ccc3c2=O)c1`, -3.19%. In the case of `Cc1ccn2c(=O)c(C(=O)NCCC(c3ccccc3)c3ccccc3)cnc2c1` it was -1.66%; in that of `O=C(Nc1cnn(Cc2ccc(F)cc2)c1)C1c2ccccc2Oc2ccccc21`, 3.94%; in that of `NC(=O)C1CCCN(Cc2ccco2)C1` (centres unmarked), 1.88%.
